“And” between values parts separate entries of the source, which are not always exact repeats. Identical values can stand only once. Out of some 200,000 compounds screened, about 4,500 (2.2%) were called active. The inconclusive results got no clear call from the source; some entries with a clear call stand among them for comparison. The call rests on the fitted dose curve; in most records, active means well fitted inhibition curve with a large enough effect; inconclusive means small, poorly fitted or top-dose-only effect, or effect the other way; inactive means flat fitted curve, though single readings scatter. Where the call is inconclusive, the potency comes from a doubtful curve fit.
The compounds below were run against Cruzipain (Trypanosoma cruzi) (UniProt P25779) (assay: qHTS Assay for Promiscuous and Specific Inhibitors of Cruzain (without detergent)). Settings: purified cruzain, Z-FR-AMC fluorescence, no detergent.
How it was run: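 Purified cruzain at 1.5 nM, pre-incubated 15 min with compound at room temperature in 100 mM sodium acetate pH 5.5, 5 mM DTT, 0.00005% Triton X-100. Reaction started with 2 uM Z-FR-AMC; AMC fluorescence increase over 60 s gives rate.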
Further: nearly all actives have a fitted effect of over 40% in size.
Potency means the concentration at half of the fitted maximal effect; tags describe the fitted curve by direction and shape.
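Wherever max response, negative = inhibition is given: plate controls were enzyme without inhibitor for no effect and buffer without enzyme for full effect.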

Sequence of UniProt P25779 (P25779 whole entry, looked up): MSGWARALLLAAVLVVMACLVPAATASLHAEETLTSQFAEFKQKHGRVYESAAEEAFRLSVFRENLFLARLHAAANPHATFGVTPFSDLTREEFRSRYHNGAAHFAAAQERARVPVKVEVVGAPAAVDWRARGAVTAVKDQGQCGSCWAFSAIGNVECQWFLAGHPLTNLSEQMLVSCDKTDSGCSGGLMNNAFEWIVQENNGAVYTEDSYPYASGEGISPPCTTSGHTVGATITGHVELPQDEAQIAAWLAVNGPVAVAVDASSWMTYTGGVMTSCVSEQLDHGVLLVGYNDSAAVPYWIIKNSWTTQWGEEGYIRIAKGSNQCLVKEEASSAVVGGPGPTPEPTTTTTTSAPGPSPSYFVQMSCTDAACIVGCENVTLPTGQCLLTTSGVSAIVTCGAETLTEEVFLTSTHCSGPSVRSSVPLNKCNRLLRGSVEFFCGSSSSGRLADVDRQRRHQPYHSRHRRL

Structure (SMILES) | max response, negative = inhibition | Potency
Cc1nnc(N2CCN(c3ccccc3F)CC2)c2c1nnn2Cc1ccccc1 | inactive: 7.78% | 
COc1ccc(/C=c2\s/c(=C/C(=O)c3ccc(C)cc3)[nH]c2=O)c(OC)c1 |  | active: 25.1 µM
O=C(CC1C(=O)NCCN1C(=O)Nc1ccccc1)Nc1cccc(C(F)(F)F)c1 (stereo unspecified) |  | inconclusive: 25.1 µM [activator, single point]
c1ccc(C2=NN[C@@H]3c4ccccc4-c4ccccc4N3C2)cc1 | inactive: -11.7% | 
O=C1C=CC2=C3c4cc(O)c(O)cc4C[C@@]3(O)COC2=C1 | inactive: -10.1% | 
CC(C)c1ccc2nc3sc(C(=O)N4CCc5ccccc5C4)c(N)c3cc2c1 |  | inconclusive: 39.8 µM [inhibitor, single point]
Clc1ccc(Oc2ncnc3oc(-c4ccccc4)cc23)cc1 |  | active: 20 µM
CCOC(=O)Cn1c(=O)n(-c2ccccc2OC)c2nc(-c3ccccc3C)nc(C(N)=O)c21 |  | inconclusive: 39.8 µM [activator, single point]
CC(O/N=C/c1ccccc1OC(F)F)C(=O)Nc1cccc(S(=O)(=O)N2CCOCC2)c1 (stereo unspecified) |  | inconclusive: 39.8 µM [activator, single point]
C=CCn1c(CSCc2ccccc2)nnc1SCC(=O)N1CCN(c2ccccc2)CC1 |  | inconclusive: 31.6 µM [activator, single point]
CCc1nn2c(=O)cc(COC(=O)C(c3ccccc3)c3ccccc3)nc2s1 |  | inconclusive: 31.6 µM [activator, single point]
Cc1cccc(-c2nc(SCC(=O)Nc3ccc4c(c3)OCCO4)c(-c3ccccc3)[nH]2)c1 |  | inconclusive: 31.6 µM [inhibitor, single point]
COc1ccc(C2c3c(oc4ccc(C)cc4c3=O)C(=O)N2c2cc(C)ccn2)cc1OC (stereo unspecified) |  | inconclusive: 39.8 µM [activator, single point]
COc1ccc(C)cc1S(=O)(=O)N(C)CC(=O)NCc1ccco1 |  | inconclusive: 31.6 µM [activator, single point]
CCc1ccccc1NC(=O)COc1ccc2c(=O)c(Oc3cc(C)ccc3C)coc2c1 |  | inconclusive: 20 µM [inhibitor, partial curve, poor fit]
CO[C@@H]1/C=C\O[C@]2(C)Oc3c(C)c(O)c4c(O)c(c(CN(C)C)c(O)c4c3C2=O)NC(=O)/C(C)=C\C=C[C@@H](C)[C@@H](O)[C@H](C)[C@@H](O)[C@H](C)[C@H](OC(C)=O)[C@@H]1C |  | inconclusive: 5.01 µM [activator, single point]
COc1cccc(NC(=O)CN(c2ccc(C)cc2)S(=O)(=O)c2c(C)nn(C)c2C)c1 |  | inconclusive: 31.6 µM [activator, single point]
CCN(CC)c1ccc(-n2nc3cc(C)c(NC(=O)c4ccccc4F)cc3n2)cc1 | inactive: 3.71% | 
O=C(CSc1nc(O)cc(=O)n1-c1ccccc1)Nc1ccc2c3c(cccc13)CC2 |  | inconclusive: 39.8 µM [activator, single point]
CCCC(=O)Nc1ccc(Cl)c(NC(=S)NC(=O)c2cc3ccccc3o2)c1 |  | active: 5.01 µM
Cc1nn(-c2ccccc2)c(N2CCCC2)c1/C=N/NC(=S)Nc1ccccc1F |  | inconclusive: 39.8 µM [inhibitor, single point]
N=c1c2c(-c3ccccc3)c(-c3ccccc3)n(Cc3ccco3)c2ncn1Cc1ccco1 |  | inconclusive: 39.8 µM [inhibitor, single point]

Structure (SMILES) | max response, negative = inhibition | Potency
COc1ccc2oc(-c3ccccc3)c(C(N)=O)c2c1 |  | inconclusive: 39.8 µM [inhibitor, single point]
Cc1cccc(N2CCc3c2nc2ccccc2c3N)c1 |  | inconclusive: 39.8 µM [inhibitor, single point] and inconclusive: 31.6 µM [activator, single point]
Cc1cc(C(=O)OCC(=O)N2CCN(C(=O)c3ccco3)CC2)c(C)n1-c1ccc(F)cc1 |  | inconclusive: 25.1 µM [activator, single point]
O=C(CSc1nnc(COc2ccc(Cl)cc2)o1)N1CCN(c2ccccc2)CC1 | inactive: -2.42% | 
O=[N+]([O-])c1ccc(Cl)c(/C=N/N2CCN(c3ccccc3)CC2)c1 |  | inconclusive: 39.8 µM [inhibitor, single point]
Cc1ccc(CCNC(=O)C2CCN(S(=O)(=O)c3cccc4nsnc34)CC2)cc1 |  | inconclusive: 31.6 µM [inhibitor, single point]
Cc1ccc(-c2cc(C(F)(F)F)n3nc(C(=O)Nc4c(C)n(C)n(-c5ccccc5)c4=O)cc3n2)cc1 |  | inconclusive: 39.8 µM [activator, single point]
CCCCc1ccc(NC(=O)COc2cccc3c(=O)n(C)ccc23)cc1 |  | active: 20 µM
COC(=O)c1cc2sc(Cl)cc2n1CC(=O)NCCC(C)C |  | active: 25.1 µM
CCOC(=O)c1c(C)c(-c2ccccc2)n(CC(=O)NCCc2ccc(C)cc2)c1C | inactive: -2.88% | 
CCc1ccc(NC(=O)N(Cc2ccc(C)cc2)Cc2cccn2-c2nnc(N3CCCC3=O)s2)cc1 | inactive: -9.54% | 
CCOC(=O)C(C(=O)OCC)N(C#N)c1nc(OC)nc(N(C)C)n1 |  | active: 10 µM
CCc1ccc(NC(=O)CN2C(=O)C(c3ccccc3)=NC23CCCCCC3)cc1 | inactive: -25.9% | 
Cc1cc(C(=O)NNC(=S)NC(=O)/C=C/c2ccccc2Cl)n[nH]1 |  | inconclusive: 15.8 µM [inhibitor, single point]
O=C(Nc1cccc(N=Cc2cc(Br)cc(Br)c2O)c1)c1ccco1 |  | inconclusive: 39.8 µM [inhibitor, single point]
COc1ccc(/C=C/C(=O)OCc2csc(-c3ccccc3)n2)cc1OC |  | inconclusive: 39.8 µM [activator, single point]
O=C(CNC(=O)c1cccs1)NCC(=O)OCc1ccc(Cl)cc1Cl | inactive: 6.56% | 
COCC1C2CC[C@H]3C(OCc4ccc(F)cc4C(F)(F)F)OC[C@]4(C)[C@H]3C2=C(CN4C(=O)OC(C)(C)C)[C@H](C)C1COC (stereo partly specified) |  | inconclusive: 31.6 µM [activator, single point]
NC(=O)CN1CCN(c2nc(-c3ccc(F)cc3)cs2)CC1 | inactive: 0.379% | 
Cc1cc(/C=C(\C#N)c2nnc(N3CCOCC3)n2-c2ccccc2)c(C)n1-c1ccccc1 |  | inconclusive: 39.8 µM [activator, single point]
COc1ccc(NC(=O)c2nc(-n3nc(C)cc3C)ccc2Cl)cc1Cl |  | inconclusive: 39.8 µM [activator, single point]
CCSc1nnc(NC(=O)C2CCN(S(=O)(=O)c3ccccc3C(F)(F)F)CC2)s1 | inactive: 9.23% | 

Structure (SMILES) | max response, negative = inhibition | Potency
CC(=O)N1CCCc2cc(S(=O)(=O)N3CCN(c4ccc(F)cc4)CC3)ccc21 |  | inconclusive: 39.8 µM [activator, single point]
Cc1cccn2c(=O)c(/C=C(\C#N)S(=O)(=O)c3ccccc3)c(Oc3ccc(Cl)cc3)nc12 |  | inconclusive: 39.8 µM [inhibitor, single point]
CCc1sc(C(=O)Nc2ccc(NC(C)=O)cc2)cc1C |  | inconclusive: 39.8 µM [inhibitor, single point]
O=C(Cc1csc2ccccc12)NCc1ccccc1F | inactive: 7.63% | 
CC1CN(C(=O)N2c3ccccc3Sc3ccccc32)C(C)CC1=O (stereo unspecified) |  | inconclusive: 31.6 µM [activator, single point]
CN(CC(=O)Nc1ccc(F)cc1F)S(=O)(=O)c1ccc(C(=O)N2CCOCC2)s1 | inactive: 4.24% | 
O=C(O)C1CC(=O)N(c2ccc(OCc3ccc(Cl)cc3Cl)cc2)C1 (stereo unspecified) |  | inconclusive: 39.8 µM [activator, single point]
CC1CCc2onc(C(=O)N3CCN(c4cccc(C(F)(F)F)c4)CC3)c2C1 (stereo unspecified) | inactive: 11% | 
COCc1cc(Sc2ccc(Cl)cc2)nc(-c2ccccc2)n1 | inactive: -6.36% | 
Cc1ccccc1OCCNc1cc(N2CCCCC2)ccc1[N+](=O)[O-] |  | inconclusive: 25.1 µM [inhibitor, single point]
Cc1nc(SCCC(=O)O)c2ccccc2n1 |  | inconclusive: 20 µM [inhibitor, single point]
N#Cc1c(NC(=O)CSc2ncn(-c3ccccc3)n2)sc2c1CCCC2 |  | inconclusive: 31.6 µM [inhibitor, single point]
Cc1nc2cnc(Nc3ccccc3)nc2n(Cc2cccs2)c1=O | inactive: 0.943% | 
CCC1c2ccc(C)n2CCN1C(=O)Nc1cc(Cl)ccc1OC (stereo unspecified) |  | inconclusive: 31.6 µM [inhibitor, single point]
CSc1nc2nccc(-c3ccc(Cl)cc3)n2n1 |  | inconclusive: 31.6 µM [inhibitor, single point]
Cc1ccc(C(=O)Nc2nc3n(n2)C(c2ccccc2)C=C(c2ccccc2)N3)cc1 (stereo unspecified) |  | inconclusive: 39.8 µM [activator, single point]
OCc1ccccc1N=c1ssnc1Cl |  | active: 25.1 µM
Cc1ccc(NC(=O)Cn2c(C)cc(C)c(C#N)c2=O)cc1F | inactive: 3.21% | 
NCCNc1ncnc2ccc(Cl)cc12 | inactive: 0.376% | 
COc1ccc(OC)c(NC(=O)c2ccc3c(c2)c(C)c(C)n3Cc2ccc(F)cc2)c1 |  | active: 5.01 µM
Cc1nc(SCC(=O)Nc2c(C)n(C)n(-c3ccccc3)c2=O)nc(C)c1C | inactive: -7.14% | 
Cc1ccc(C)n1-c1nnc(N2CCCC(C(=O)NCc3ccc(F)cc3)C2)s1 (stereo unspecified) | inactive: 2.29% | 

Source: PubChem BioAssay AID1476 (National Center for Advancing Translational Sciences (NCATS), 2009)
